Several values for one entry are separate records, joined by “and”; a condition that tells them apart may be missing. Identical values can stand only once. In all, about 420,000 compounds went through this assay and about 64,000 (15%) were called active. The inconclusive results got no clear call from the source; some entries with a clear call stand among them for comparison. Calls follow the shape of the dose curve; as a rule, active = well fitted inhibition curve with a large enough effect; inconclusive = small, poorly fitted or top-dose-only effect; inactive = flat fitted curve, though single readings scatter. Potencies of inconclusive entries are left out as doubtful fits. More than one record can exist for a structure, and the calls need not agree.
Assay: qHTS for Inhibitors of human tyrosyl-DNA phosphodiesterase 1 (TDP1): qHTS in cells in absence of CPT; also: nearly all actives have a fitted effect of over 55% in size
Details: DT40 Tdp1-/- hTDP1 cells, no CPT, ATP luminescence, 48 h; activity change, negative = growth inhibition: at 46.2 µM (top of the series) unless noted
Procedure, shortened: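 Cells were dispensed at 400 per well, compounds added by pin tool, plates incubated ≥48 hr at 37 °C, then CellTiter-Glo added for 30 min at room temperature before luminescence reading. Line: DT40 Tdp1-/- complemented with hTDP1; camptothecin omitted.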
With `COc1ccc(NS(=O)(=O)c2cccc3nsnc23)cc1Cl` the “activity change, negative = growth inhibition” value was inactive: -1.64%. For `c1cncc(-c2ccc3ncnc(NCCN4CCOCC4)c3c2)c1`, the Potency was inconclusive [inhibitor, single point]. For `CC(OC(=O)c1cc2sccc2n1C)C(=O)NC(C)(C)C` (stereo not drawn), the Potency was inconclusive [inhibitor, partial curve, poor fit]. In the case of `COc1ccccc1-c1ccc(Nc2ccc(C(=O)N3CCOCC3)cc2)nn1`, the Potency is reported as inconclusive [inhibitor, single point]. In the case of `Cc1cnc(-c2nc3ccccc3n2C(C(=O)NC(C)(C)C)c2cc3ccccc3o2)cn1` (stereo not drawn), the Potency is reported as inconclusive [inhibitor, single point]. With `COc1ccccc1NC(=O)Cc1nnc(SCC(=O)NC2=NCCS2)n1C` the “activity change, negative = growth inhibition” value was inactive: -25.9%. In the case of `Cc1ccsc1C=C1C(=O)c2ccccc2C1=O`, the “activity change, negative = growth inhibition” value is reported as inactive: -14.3%. In the case of `O=C(C1CCC(Cn2c(=S)[nH]c3ccccc3c2=O)CC1)N1CCN(c2ccccn2)CC1` (stereo not drawn), the Potency is reported as active: 23.1 µM. For `CN(C)c1ccc2c(=O)c3ccccc3oc2n1`, the Potency was inconclusive [inhibitor, single point]. With `Cc1noc(C)c1S(=O)(=O)N(C)C[C@H]1OCCCC[C@H](C)Oc2ccc(NC(=O)CCCN(C)C)cc2C(=O)N([C@H](C)CO)C[C@@H]1C` the “activity change, negative = growth inhibition” value was inactive: -12.8%. In the case of `CC(C)C(C(=O)NC1CCCC1)N(Cc1ccco1)C(=O)CNS(=O)(=O)c1ccccc1` (stereo not drawn), the “activity change, negative = growth inhibition” value is reported as inactive: -22.6%. With `CCOc1ccc(-n2c(-c3ccccc3)c[n+]3c2CCCCC3)cc1` the Potency was active: 0.0291 µM. In the case of `CCCOc1ccc(CNC(=O)CCCN2C(=O)CSc3c2c(C)nn3-c2ccccc2)cc1`, the Potency is reported as inconclusive [inhibitor, single point]. With `O=C(Nc1ccccc1)c1cccc(N2C(=O)C3C4C=CC(C4)C3C2=O)c1` (stereo not drawn) the “activity change, negative = growth inhibition” value was inactive: -28.6%. With `CCOc1ccc(C(=O)NCC(=O)Nc2ccncc2)cc1OCC` the “activity change, negative = growth inhibition” value was inactive: 9.87%. For `Cc1cc(F)ccc1NC(=O)C1CCCO1` (stereo not drawn), the “activity change, negative = growth inhibition” value was inactive: -2.17%. In the case of `CC1C(=O)N(Cc2ccc(F)cc2)c2ccccc2N1C(=O)c1c(F)cccc1F` (stereo not drawn), the Potency is reported as inconclusive [inhibitor, partial curve]. In the case of `COc1cc(NC(=O)C2(C)CCCN2C(=O)C(C)C)cc(OC)c1OC` (stereo not drawn), the “activity change, negative = growth inhibition” value is reported as inactive: 12.6%. In the case of `COc1cccc(OC)c1C(=O)NNS(=O)(=O)c1ccc2ccccc2c1`, the “activity change, negative = growth inhibition” value is reported as inactive: 0.845%. With `CCOc1ccccc1N1CN(Cc2ccccc2)CNC1=S` the Potency was inconclusive [inhibitor, single point]. For `CCOc1ccc(S(=O)(=O)N2CCC(C(=O)NCc3cccnc3)CC2)cc1`, the “activity change, negative = growth inhibition” value was inactive: -11.3%. With `COc1ccc2c(CC#N)c[nH]c2c1` the “activity change, negative = growth inhibition” value was inactive: -13.8%. For `CCOC(=O)c1sc(NC(=O)c2nc3nc(C)cc(C(F)F)n3n2)c(C(=O)OC(C)C)c1C`, the “activity change, negative = growth inhibition” value was inactive: -1.18%. In the case of `CCC1CCCCN1C(=O)c1cc2c(=O)n3cccc(C)c3nc2s1` (stereo not drawn), the Potency is reported as inconclusive [inhibitor, partial curve]. In the case of `Cc1cc(NC(=O)COC(=O)C2CC2)ccc1Br`, the “activity change, negative = growth inhibition” value is reported as inactive: 28.7%. In the case of `COc1ccc(C2(N3CCN(c4cc(C)ccc4C)CC3)C(=O)c3ccccc3C2=O)cc1`, the Potency is reported as inconclusive [inhibitor, single point]. In the case of `Cc1cc(C)c(OCC(=O)OCC(=O)NCc2ccco2)c(C)c1`, the “activity change, negative = growth inhibition” value is reported as inactive: -6.78%. For `Cc1ccccc1C(=O)Nc1ccccc1N1CCCCC1`, the Potency was active: 16.4 µM. In the case of `COC(=O)/C=C1\N/C(=N\c2nc(C)cc(C)n2)N(c2ccc(C)cc2)C1=O`, the Potency is reported as inconclusive [inhibitor, single point]. For `COC(=O)[C@@H]1C[C@@]2(O)[C@@H](O)[C@@H](O)[C@@H](O)C[C@H]2N1CC1CCCCC1`, the “activity change, negative = growth inhibition” value was inactive: -1.65%. For `CC(=O)N/C(=C/c1ccc2c(c1)OCO2)C(=O)NC(Cc1ccccc1)C(=O)O` (stereo not drawn), the “activity change, negative = growth inhibition” value was inactive: -14.6%. With `CC1(C(=O)Nc2ccc3c(c2)OCO3)CCN1C(=O)CCC1CCCC1` (stereo not drawn) the Potency was inconclusive [inhibitor, single point]. For `O=C(CN1C(=O)NC2(CCCCCC2)C1=O)N1CCN(c2ccc(F)cc2)CC1`, the Potency was inconclusive [inhibitor, single point]. For `CCOc1ccc(C(=O)N2CCN(S(=O)(=O)c3ccc4c(c3)OCCO4)CC2)cc1OCC`, the Potency was inconclusive [inhibitor, single point]. With `O=C(/C=C/c1ccc(F)cc1)N1CCN(c2ccccn2)CC1` the “activity change, negative = growth inhibition” value was inactive: -23.1%. With `N#Cc1cccc(NC(=O)C2CCN(S(=O)(=O)c3ccc4c(c3)CCCN4C(=O)C3CCC3)CC2)c1` the Potency was inconclusive [inhibitor, single point]. With `Cn1c(N)c(C(=O)COC(=O)C2Cc3ccccc3CN2S(C)(=O)=O)c(=O)n(C)c1=O` (stereo not drawn) the Potency was inconclusive [inhibitor, single point]. With `CCCN(CCC)C(=O)Cn1c(SCc2cccc(F)c2)nc2cccnc21` the Potency was inconclusive [inhibitor, single point]. With `CCN(CC)S(=O)(=O)c1ccc(/C=C/C(=O)OCC(=O)N(C)C)cc1` the “activity change, negative = growth inhibition” value was inactive: -4.54%. With `COc1cc(O)c(C(C)=O)c2c1C=CC(C)(C)O2` the Potency was inconclusive [inhibitor, single point]. With `CCOC(=O)c1sc(CS(=O)(=O)c2ccc(Cl)cc2)nc1C` the activity change, negative = growth inhibition was inconclusive: -34.3% [inhibitor]. For `O=C(N/N=C/c1ccc(Br)s1)c1ccccn1`, the Potency was inconclusive [inhibitor, single point]. With `CC1=NNC(=O)C1CCC(=O)N/N=C/c1ccco1` (stereo not drawn) the “activity change, negative = growth inhibition” value was inactive: -4.65%. In the case of `COc1ccc(CC(=O)Oc2ccccc2Cl)cc1S(=O)(=O)N1CCOCC1`, the “activity change, negative = growth inhibition” value is reported as inactive: -5.53%. For `CC(C)(C)NC(=O)[C@@H]1CN(Cc2cccnc2)CCN1C[C@@H](O)C[C@@H](Cc1ccccc1)C(=O)N[C@H]1c2ccccc2C[C@H]1O`, the Potency was “inactive and active: 11.9 µM”. For `CC1=C(C(=O)OCCOc2ccccc2)C(c2ccc(C)o2)C2=C(CC(C)(C)CC2=O)N1` (stereo not drawn), the Potency was inconclusive [inhibitor, single point]. For `CC(=O)c1cccc(S(=O)(=O)N2CCC(C(=O)Nc3cccc(C(=O)NC4CC4)c3)CC2)c1`, the “activity change, negative = growth inhibition” value was inactive: -9%. For `COC(=O)C1=C(C)OC(N)=C(C#N)C1c1ccc(OC)c(OC)c1OC` (stereo not drawn), the Potency was inconclusive [inhibitor, single point].

From PubChem BioAssay AID686978 (National Center for Advancing Translational Sciences (NCATS), 2013)
% is scaled to controls: 0 for no effect and ±100 for the full control effect; potency is read from the fitted curve at half-maximal effect; tags tell the direction and shape of the fitted curve.
